Measurements published in the supplement of paper PMC11417369.
This is one part of the list.

What follows are sequences tested on PfAP2-HC AP2 domain (GST-tagged) (assay: gcPBM binding intensity (ln(normalized median fluorescence intensity)); higher = stronger DNA binding).
Method in brief: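 DNA-binding domains from P. falciparum, fused to GST and produced in E. coli, were put on an Agilent 4 × 180k double-stranded probe array for 1 h in 1× PBS holding 1% milk, 0.2 mg/ml BSA, 0.5% salmon testes DNA and 0.03% Triton X-100. Probes were primer-extended, 36 bp long and drawn from intergenic genomic regions, with negative controls included. After Alexa488 anti-GST antibody detection and a 488 nm scan, binding intensity was set as the highest Masliner-normalised natural-log median intensity across replicate spots of either probe orientation.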

Sequence | gcPBM binding intensity (ln)
TACAAGTATAAATAAGCACACATGTGGATATGTACA [CACACA_site4229] | 10
ATGAATCCTTAATATGAACACACAAATATATTACAC [CACACA_site7943] | 9.84
TTATTTCAAAGTAAATCAGTAAATATTTGTTTTCTT [CACACA_negctrl_site1572] | 9.45
TTTTTTATTTATCCTATATATTACTAAATGAAGAAC [GTGCAC_negctrl_site333] | 9.18
TCCTTATTTATATAATGTACTTTTTTTTTTCATTTT [XGTACX_site4275] | 9.64
GATAAAATAGGACCATATTCTTTAAAACGATAAAAT [XGTACX_negctrl_site405] | 9.7
ATATATATATATTTATGTACATATACATAATGTATA [XGTACX_site6387] | 9.57
TAAAGTTAAAAATTATGTACATATATATTGTATATT [XGTACX_site5528] | 9.65
TAAGAAGTATTTTCCTGTACATATTTTATATGTATG [XGTACX_site4658] | 9.65
TTATTTTATATATCACGTACATAGTTGTCTTCTTTT [XGTACX_site2906] | 9.78
AAAATATAAAATAATGCACACATAAACAAAAAATCA [CACACA_site8382] | 10.1
TACATATTTAAATACTGTACTCAAAAGAATTGTGCA [XGTACX_site2250] | 9.46
ACTAATATGTATATATATATATATATATATATATAT [CACACA_negctrl_site141] | 9.58
ATCAAAAAAAAAAAAAGTACACAAAATTTTTTATTA [XGTACX_site7986] | 9.43
TATATGTGTGTTATATGTACTTATATATATATATAT [XGTACX_site5570] | 9.98
ATAATGAACAAAGTAGTGCACTTTCCTTATCTTTTC | 9.71
AAGGTTTAAAATTACTGTACAAATATAAATAAATAT [XGTACX_site3756] | 9.57
GTTTATCACAGCCACGCACACATAATATCTGTATAT [CACACA_site5929] | 10
CTTATATTGTACAGTACACACCTTTATAATGTTATT [CACACA_site4280] | 10.1
GATTATTAATAGTAACGTACATATGTTATAAAATAT [XGTACX_site5277] | 9.75
TATAGTATTCTAAATGCATGTAAATTATGTATATAT [TGCATGCA_site931] | 9.71
AAATTCCACGAACACACACACATATAAATAAATAAA [CACACA_site6697] | 10.6
TAGTAAAAACCAAAATGTACATGTGCCATTTTTTTA [XGTACX_site2630] | 9.61

Sequence | gcPBM binding intensity (ln)
TATATTATACTAAGAAGTACAATATTTTTATTGTAA [XGTACX_site2810] | 9.34
ACATCAAGCAGACACACACACACACGCACACGCACA [CACACA_site6309] | 11.2
ACTATTCATGCATATACACACACATATATATATATT [CACACA_site9309] | 10.2
TTGTTTCTCTTTAAAAGTACAAAAATGGTTACATAT [XGTACX_site3109] | 9.54
TAGATTTTTTAATGTTGTACAAATATACGATATATA [XGTACX_site3258] | 9.39
AAATATATATAAAAGTGTACATTTGTTATAATCAGT [XGTACX_site4822] | 9.91
TTATATATTTCTACTCATATTACAATGTGAGAAATA [CACACA_negctrl_site873] | 9.29
CTCAACAAAATATGAGTGCATTGTTATTACATATAT | 9.84
AACATTAAAAGGGATACACACATATAAATAAATAAT [CACACA_site489] | 10
TAGATATATAATTTTTGTACGTAGTCGAATCTCAGA [XGTACX_site765] | 9.51
CCAACTAAAAAGGAATGTACATAGTTATGGTTGGAA [XGTACX_site8762] | 9.86
ACTTTAAACAAAAAAAGTACTCTTTAATGAATATAT [XGTACX_site7176] | 9.42
TATATATATATATATATATATATATATATATGTTGT [TGCATGCA_negctrl_site24] | 9.49
CAATATTTTATTTAAGCATGCTCTAGGGTGTAAAAG [TGCATGCA_site1001] | 9.53
CAATTTCTCTTAATTTGTACATATATGTTATACAAA [XGTACX_site3231] | 9.56
AAAAGAAAAGAGAGGAGTACAAAATATAATTATCTA [XGTACX_site5172] | 9.74
TTATTTATTTATATAGTGCAATAAACACATAAATAG | 9.34
TGTATATATTAATGTACACACATGCGTATGTTCGTT [CACACA_site3583] | 9.96
AAAAAAAAAAAAAGAACACACACAGTGCACATTCGG [CACACA_site8163] | 9.97
CATATTGGTATGCTCATGCACTTTTATTTTGTTATT [GTGCAC_site9553] | 10.1
AATTAGATACTAACAAGTACATATATATATATATAT [XGTACX_site2252] | 10.2
TTTCCCTAATGAAAGTGTACCTGTGAGAAAAAAAAG [XGTACX_site194] | 9.46
